Experimental findings from article PMC7819943, “Rice protein-binding microarrays: a tool to detect cis-acting elements near promoter regions in rice” are described below.

The list shows a part of the results.

The experiment addresses T1, OsWOX13 (Oryza sativa, UniProt Q5QMM3 1-267).
T1 sequence: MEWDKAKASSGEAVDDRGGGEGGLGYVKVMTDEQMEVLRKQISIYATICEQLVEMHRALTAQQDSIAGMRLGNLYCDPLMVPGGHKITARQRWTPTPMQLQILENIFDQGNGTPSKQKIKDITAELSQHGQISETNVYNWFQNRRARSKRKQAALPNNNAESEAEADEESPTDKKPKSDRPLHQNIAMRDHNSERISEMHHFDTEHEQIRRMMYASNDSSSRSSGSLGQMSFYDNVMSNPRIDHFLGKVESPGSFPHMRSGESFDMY
Put plainly: protein-binding microarray (RPBM); PBS, 2% BSA, 51.3 ng/ul salmon testes DNA, 50 uM zinc acetate, 200 nM TF, 25 C, 1 h; high values mean tight binding. To be noted: protein: recombinant; tags: N-terminal polyhistidine and DsRed monomer fusion (pET32a); label: CyDye5-dUTP incorporated in the synthesized complementary strand; 3' TTTTT single-stranded linker to array surface; dsDNA, one strand shown. An outline of the steps:
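The binding signal for each feature is its fluorescence intensity in arbitrary units. An Axon 4000B scanner was used to read a custom Agilent array that had been made double-stranded with Cy5-dUTP primer extension, blocked with 2% BSA, incubated at 25 °C for 1 h with 200 nM protein in PBS, 2% BSA, salmon testes DNA and 50 µM zinc acetate, and washed. The protein was an N-terminal polyhistidine–DsRed transcription factor fusion from E. coli BL21-CodonPlus, purified on Ni–NTA.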
Regarding “TGGAATTTCCCCTGTGATTACATACGTGTGCTCGTAATGTCGGAGTCACCTAGTGCAG”, the binding signal was 7830 fluorescence intensity (a.u.).

For “AGTCGAGTCAACTTAATTAACTTAACTTCAACCGTCGCTACGGAGTCACCTAGTGCAG”, the binding signal was 5940 fluorescence intensity (a.u.).

Regarding “TATTCATAAATTTGTAACCGACTTAACAACGTCCATATACCGGAGTCACCTAGTGCAG”, the binding signal is 4790 fluorescence intensity (a.u.). “ATGATGTGACAGTAATATGAATATGGACACATGTATGTCCCGGAGTCACCTAGTGCAG”: the binding signal is 11800 fluorescence intensity (a.u.). As to “CGAGACAAATCTTTTAAATCTAATTGTTCCATGATTTGACCGGAGTCACCTAGTGCAG”, the binding signal was 11000 fluorescence intensity (a.u.). Consider “GGTAAAACAGTAATAAATTGGCACCGAACCGCGGGGTAAACGGAGTCACCTAGTGCAG”, for which the binding signal was 19700 fluorescence intensity (a.u.). The result for “TATGATTTGATTACACTATTATATTTGTTACAATTAAATCCGGAGTCACCTAGTGCAG” reads 43700 fluorescence intensity (a.u.). Regarding “CTATTGAATGAAATTGACGTGTCGCCCGTTTGTTAAAATACGGAGTCACCTAGTGCAG”, the binding signal is 13900 fluorescence intensity (a.u.). For “AAAATTTGAAAATATAGATAATTATGCTAATATTTTAAGACGGAGTCACCTAGTGCAG” the value was 4100 fluorescence intensity (a.u.); for “CGATAAACTGAACAATCCCATCTTTGGTTGCTGGAGCAAACGGAGTCACCTAGTGCAG”, 4330 fluorescence intensity (a.u.); for “GTCTAAATCCTAGCAGCAAATTGATGATAGACCCACATAGCGGAGTCACCTAGTGCAG”, 11100 fluorescence intensity (a.u.). With “GTTCGATCATCTGATTGACTCCTCAAGAAAGTTCATTTGCCGGAGTCACCTAGTGCAG”, the binding signal was 23600 fluorescence intensity (a.u.). With “TGAAACTTTTGATTGGACTGTAGCTCCAGAAGAGTTGAAGCGGAGTCACCTAGTGCAG”, the binding signal was 30700 fluorescence intensity (a.u.). For the sequence “AAAATTTGATAAGGTTTATTTTGGATAATCTGAACAGCCCCGGAGTCACCTAGTGCAG”, the binding signal is 4300 fluorescence intensity (a.u.). As to “CAATTTAATGGCCAATTTATACAATAGTTACCGATAAACACGGAGTCACCTAGTGCAG”, the binding signal was 6060 fluorescence intensity (a.u.). Take “AGTCAATTACCAGTTATCACAACAATCCTCCTGGTAGAAACGGAGTCACCTAGTGCAG”: the binding signal is 25700 fluorescence intensity (a.u.). For the sequence “TAGACTAATTTTCGAAAGTTAAAACATTTGATGTCACGCACGGAGTCACCTAGTGCAG”, the binding signal was 4680 fluorescence intensity (a.u.). Turning to “GTCTGATGGATAGCCGTCCGATCCGCGCGGCTCGATCGCACGGAGTCACCTAGTGCAG”, the binding signal is 8760 fluorescence intensity (a.u.). With “CCCTAACTTGCATAATTTAATTACCATTTCTCTACCAAGACGGAGTCACCTAGTGCAG”, the binding signal is 14900 fluorescence intensity (a.u.). For the sequence “TTGGTGATTGAATCTGAACATGCTGGCCTTTGGGATGACTCGGAGTCACCTAGTGCAG”, the binding signal was 28400 fluorescence intensity (a.u.).

As for “GATTTATGATTAATGGATTATAACTTTACACTAATATAGGCGGAGTCACCTAGTGCAG”, the binding signal was 28600 fluorescence intensity (a.u.). For “CTAGTGCAATCACTCAAGATCTGATCAGATCAAACCATTCCGGAGTCACCTAGTGCAG” the value was 4680 fluorescence intensity (a.u.). For the sequence “AATTGATTATAGATGATGTTCTAAATTTTGGAGCTGGTAGCGGAGTCACCTAGTGCAG”, the binding signal is 44800 fluorescence intensity (a.u.). For the sequence “ACGAATCTATTGAGCCTAATTAATTCATAATTAGTCTATGCGGAGTCACCTAGTGCAG”, the binding signal is 14600 fluorescence intensity (a.u.). As for “AAGATTGATACACGGAATTCATCTGCTACAGGAAAGCATTCGGAGTCACCTAGTGCAG”, the binding signal was 28500 fluorescence intensity (a.u.). On to “GAAATGACAGATGAATGTACAGTACCGCAAAGCTAGCCCTCGGAGTCACCTAGTGCAG”, for which the binding signal is 9750 fluorescence intensity (a.u.). The result for “TATGTGTGATTTAACTTGGATAAATTTTAGAGGCTAAATTCGGAGTCACCTAGTGCAG” reads 7520 fluorescence intensity (a.u.); that for “ATGATTTATGATCATACTTAGGTGCTTCGATAAATTATTGCGGAGTCACCTAGTGCAG”, 17700 fluorescence intensity (a.u.); that for “TTCCTGCGATTCAATCAAACGGTCATTCCTGTGTTTTGCACGGAGTCACCTAGTGCAG”, 6180 fluorescence intensity (a.u.). For “TACTAATGATAGATTAATTAGGCTTAATAAATTCGTCGCACGGAGTCACCTAGTGCAG”, the binding signal was 37100 fluorescence intensity (a.u.). With “TTAATTAGGGGAAACTGGACGAAAACCACCACTACAACCACGGAGTCACCTAGTGCAG”, the binding signal was 7800 fluorescence intensity (a.u.). For the sequence “ATGTATGGAATCAGAAGATTGGCATTTTGACGTACTGCTACGGAGTCACCTAGTGCAG”, the binding signal was 4440 fluorescence intensity (a.u.). In the case of “GAATAATTCACTTGATGGGCATGTCATCGCTTATTAACACCGGAGTCACCTAGTGCAG”, the binding signal was 9640 fluorescence intensity (a.u.).

As to “TGTTTGATTTGTTTTCTTTCAATTTTGGCATTCAAATTTACGGAGTCACCTAGTGCAG”, the binding signal is 13700 fluorescence intensity (a.u.). For the sequence “TTGAATAATTGTGTGTTCCTTATCTTGGTCTGGTCACTTTCGGAGTCACCTAGTGCAG”, the binding signal is 7460 fluorescence intensity (a.u.).

With “CCAATGTTATTGATTTGGAACGCCCAGATGGTATAATTGTCGGAGTCACCTAGTGCAG”, the binding signal was 14000 fluorescence intensity (a.u.).

With “GACAATAATCGAGATTGAATTTGTGAAATAACAGGATAATCGGAGTCACCTAGTGCAG”, the binding signal was 7060 fluorescence intensity (a.u.). For “TTGTAGGATTGGCAATTCCTTTGGATTTGGCACTGTTTATCGGAGTCACCTAGTGCAG”, the binding signal is 12000 fluorescence intensity (a.u.). The result for “TTTGACTGTAAATCGGAATAAGATCTGGAATAATGATCTACGGAGTCACCTAGTGCAG” reads 10600 fluorescence intensity (a.u.). Consider “CGCTAAAATTTAGTTTCTTTTCATATTCTCTAGCTGATTTCGGAGTCACCTAGTGCAG”, for which the binding signal is 4310 fluorescence intensity (a.u.). The result for “AAATTCAAATTTTATATAGTTCAATCAAACTTGGATGAAGCGGAGTCACCTAGTGCAG” reads 5260 fluorescence intensity (a.u.); that for “AGATCATGATTTGCATGATATGCATCTGGATTTAACAAGTCGGAGTCACCTAGTGCAG”, 16100 fluorescence intensity (a.u.).
